The list shows a part of the results. Antibody binding of pooled human sera (four to six donors per pool; dilution not stated) to peptides of the Trypanosoma cruzi antigen TSSA on microarrays. Quantile-normalised fluorescence in arbitrary units, mean of duplicate arrays; higher = more binding. No active / inactive call. The uninfected pools are read here as the healthy donors of the same country. The strongest signals lie near the top of the scale (about 60,000).
The sequences below were run on pooled sera of chronic Chagas disease patients, Argentina (assay: antibody binding signal (normalised fluorescence) (arbitrary fluorescence units); higher = stronger serum antibody binding to peptide).
Protocol: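 Microarray of 15-residue peptides over residues 30-55 of Trypanosoma cruzi TSSAII, each with 1 to 10 substitutions at naturally variable positions, probed with one serum pool per country.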

Question: With GKDNKPAAGGAPSQS as the sequence, how does the antibody binding signal read?
Answer: 444

Question: Which antibody binding signal does the source give for SGKDKKAAAGETPSP here?
Answer: 637

Question: Which antibody binding signal does the source give for TDNKTATGGTPSQSG here?
Answer: 422

Question: DNKTAAGGAPSQPGA was tested. Which antibody binding signal did it give?
Answer: 312

Question: TPPSGTDKKAATGGT was tested. Which antibody binding signal did it give?
Answer: 18400

Question: How did the antibody binding signal turn out when GTEKKTATGGTPSPP was run?
Answer: 1300

Question: PPSGKDKKPATGGAP was tested. Which antibody binding signal did it give?
Answer: 1530

Question: ENKTAAGGAPSPSGA was tested. Which antibody binding signal did it give?
Answer: 362

Question: KKPATGEAPSPSGAS was tested. Which antibody binding signal did it give?
Answer: 21900

Question: For GKDKKAATGETPSQS, which antibody binding signal is on record?
Answer: 1880

Question: GTDNKAAAGETPSQS was tested. Which antibody binding signal did it give?
Answer: 177

Question: Which antibody binding signal does the source give for TISTPPSGTENKAAT here?
Answer: 46900

Question: For KDKKTATGEAPSQPG, which antibody binding signal is on record?
Answer: 4550

Question: With GKDKKTATGETPSPP as the sequence, how does the antibody binding signal read?
Answer: 1630

Question: How did the antibody binding signal turn out when KDNKAAAGETPSQSG was run?
Answer: 280

Question: PPSGTDKKPATGEAP was tested. Which antibody binding signal did it give?
Answer: 45800

Question: How did the antibody binding signal turn out when TISTPPSGTDKKPAA was run?
Answer: 39400

Question: For TENKAAAGGTPSQSG, which antibody binding signal is on record?
Answer: 34400

Question: Which antibody binding signal does the source give for EKKTAAGGAPSQPGA here?
Answer: 282

Question: KEKKPAAGGTPSQPG was tested. Which antibody binding signal did it give?
Answer: 183

Question: Which antibody binding signal does the source give for SGTDNKTATGGAPSQ here?
Answer: 905

Question: With PPSGTDKKTATGGAP as the sequence, how does the antibody binding signal read?
Answer: 7530

Question: GKEKKAAAGEAPSPS was tested. Which antibody binding signal did it give?
Answer: 6270

Question: For EKKAAAGGTPSPPGA, which antibody binding signal is on record?
Answer: 581

Question: For KKAATGGAPSQPGAS, which antibody binding signal is on record?
Answer: 602

Question: PPSGKEKKPATGGTP was tested. Which antibody binding signal did it give?
Answer: 1570

Question: For GKENKAAAGGTPSQS, which antibody binding signal is on record?
Answer: 1660

Question: With GKDNKPATGEAPSQS as the sequence, how does the antibody binding signal read?
Answer: 43600

Question: For GTDNKTATGGTPSQS, which antibody binding signal is on record?
Answer: 457

Question: With GKEKKAAAGGAPSQP as the sequence, how does the antibody binding signal read?
Answer: 605

Question: Which antibody binding signal does the source give for GKDKKAAAGGTPSQP here?
Answer: 286

Question: DKKTATGGTPSPSGA was tested. Which antibody binding signal did it give?
Answer: 579

Question: Which antibody binding signal does the source give for KENKAATGEAPSPPG here?
Answer: 24000

Question: TPPSGTENKPAAGEA was tested. Which antibody binding signal did it give?
Answer: 47600

Question: GTDNKTAAGGTPSPP was tested. Which antibody binding signal did it give?
Answer: 1250

Question: With KDKKAATGETPSPPG as the sequence, how does the antibody binding signal read?
Answer: 453

Question: How did the antibody binding signal turn out when TEKKTATGGTPSPSG was run?
Answer: 1020

Question: How did the antibody binding signal turn out when GKDNKPATGGTPSPS was run?
Answer: 1340

Question: KDNKTAAGEAPSQPG was tested. Which antibody binding signal did it give?
Answer: 5540

Question: How did the antibody binding signal turn out when KDKKAATGGTPSPSG was run?
Answer: 317

— the supplement of paper PMC10441789
